# Results as given in the supplement of paper PMC12632987.
# The full ranking holds about 4,500 sequences; the median of “median log2 fold change of GCK-ALFA target abundance (FLAG IP / Myc IP barcode read proportion)” is about 0.078, and the lowest 2% start at about -0.6. The list shows a part of the results.
# B1: GBRAP_52_5887 (protein)
# chain: KLEEAVALLKAMIEAVKAGDEEEARALAKEIVENFDEETILAAVERVAEELLDATLEEAKAFWEAAELLSEVLLEKGGSEEIASYIEAIAGATLYKVEQK
# B2: GBRAP_52_6189 (protein)
# chain: MREEIREKVLEILELVKEGKEEEARKKARELVESLNEEELKLLVEVLAEVAAEAPLEDDDAVFRLAEILAEAIEEAGKDEALAEDLLAAVAAALYAKEQA
# B3: GBRAP_166_4893 (protein)
# chain: MVEEAIKKIKEIAEKTIANIKELTLEEIQESFIEMAEIVEKAGETPELIETAAEEATKVVVEAVKAGFDREELESLALAAFGSNEELLDVLEAKLEAAKA
# B4: GBRAP_184_5077 (protein)
# chain: AVKEEVIEVENLAEAREKLAALAEKIKDFKGTLVVHVKMPKAERETLEAILEGLAAIKKAGYVTDVTVGFDADVTEEQVDFIVDTADRLGVRVVLALPEE
# B5: GBRAP_160_4367 (protein)
# chain: SEELKKLAEEIRKLLEELKELAKDLTPEEVRTLALGVLAEIAALVWSNPAISDEVEDKIMEIIDKAEEEIRANEDATPEEILEITTKAIEEIIALIEEEA
# B6: GBRAP_78_6708 (protein)
# chain: SVEEKLEEAIEHLGKAAKLLVKIGTELANDALGHLVDAITYLWEAIEEGADLELLEEARKHLEKAIELAKKLDVPEKEEILKHLEEALKLVDEAIKEVKK
# B7: GBRAP_43_5765 (protein)
# chain: SKELVDGAFDFALLMLEEPEIPEEQKVKAIQAAFELAADEGYVDQEKVDAVVKAAAATLSAENLKKILKAIEEIAKKYPELKETLDKAAKALKKAIKAKE
# B8: GBRAP_80_6841 (protein)
# chain: AEAALAAARAKLYALLPEAKPLLDEVIALAKELGVPDSVIADYVAALAELAAKDPAAAKALLEELLEDLKELKAEGDTANAEAVVRGYAGEALMQAEELE
# B9: GBRAP_83_6887 (protein)
# chain: AEEITVGATADHVEAAVEAAVDLAKEEGYKVVLDLAVTPESVPRLKAALEKVAAAGVKLELRVTVVAPTEEEARATAAEIRAHAEETGAASRLEVETEVV
# B10: GBRAP_160_4805 (protein)
# chain: SEKVEKLLKEARKDLLDTAEASKDLPIEDQAKLLEAEGYTNILDFREELGISDETEDKLAEIVDEMVATLRANPDLTPEEVLALVEEAAKKMEEIVKKEA
# B11: GBRAP_184_5102 (protein)
# chain: KTLVVEVEAETKEEAIAQIKKALDEAAAQGASLIVLLKLKNVSEEEIVEVIRTVGEYAKEKGIPSLTIGIENELDEETIDKAVEVADELGIKLVVVYPDE
# B12: GBRAP_184_5078 (protein)
# chain: KTLERLIEAETKEELLKKVDEVIKEAAAQKANLNVYIDMPGLTTEIALEIIDRLGKAKKAGKVPKVTVGFDEEFSEEEIDILVKKADEQGINVVLPIKDE
# B13: GBRAP_184_5300 (protein)
# chain: TVVNVFIEAETAEEAIKKIEAEAAKARAAGVKLSIYLSLKNVSVEGFKKIMEKLKALKDEGIIESATVEIEDDKSEEEIDEFIKLADEAGVKLVVALPDE
# B14: GBRAP_166_4906 (protein)
# chain: MKEEKIEELIERAEELIEELKEADEEEALELLIEIGEVLRELKELGASEEEILELVRRTLEAVKERGLSVRVAAGIIAEVADFDEEMREKLDEIAREVEA
# B15: GBRAP_11_2890 (protein)
# chain: KKEKLEEAAELARELVELLEELLEEGVDNEELQEEALETAERLLELAKKHLDKALQKDVEILLELVKEMLEDPERREEYAREALAAARVLEGDLLLELEE
# B16: GBRAP_184_5155 (protein)
# chain: KVLEEVIEAENLEELKEKLEEIEKKAKEEKADLIIYLDVEELTKEMVDLLAERIKEIKDAGYVKSITVGVDAELTEEMVDYVLEKFDEAGAKVAVALDEE
# B17: GBRAP_166_4952 (protein)
# chain: SMEEIKEEARKRIEELAKKMKEEDAEGQLELQAEIAETLAEAKEAGLSEEELLELVRLALKLVKEAGGDVDAFVGALNIFVDLSEEEIEKVEELREEVKK
# B18: GBRAP_160_4085 (protein)
# chain: SEEFEKLIKEVKDIFDEAIEMMKDVSKEEAVNIALVALGEVALLIEEAEELSEEAKEELLKLIDEGEKEIKANKDKSVEELIKLLKEFEEKIIEAIKKAA
# B19: GBRAP_160_4277 (protein)
# chain: SEELKELAKELEEDKEEILKLVDEISPEELKTFAVTEMGSHLLEAIELEGITEEQEEELAKIIDQLEKDLTAAKNASPEELKKIITEHYDKMIEILLKAK
# B20: GBRAP_74_6504 (protein)
# chain: SAEVKALIAELEAAAAEGASVEELEALAERVIALGDQEAAGALVKAIAAAMERAGREERRRLAEIFERLIHETDIDFSTPETGDAVKRAATLALELEKEE
# B21: GBRAP_35_5603 (protein)
# chain: ETDEEVVEWVADTVEDLVLAADDMDDETFAATAITIARATKEVIEKEKTDLEGLKRLAEELKRLLEALEKRGLDTPLMREAAAAVREALKAAEAAIKEAE
# B22: GBRAP_137_3616 (protein)
# chain: KKVTITFSEEDGTAYAEIKADKSVDQEKLEKLIEEVAEEHGVKLVKALSEDPNDIEYYLVGDPEKIVAAVKSLIKRLKEELGAEVVLESDGAEELVEKVK
# B23: GBRAP_11_2919 (protein)
# chain: KKEEKEKMAKLAEEAAELVEELIEEGVDNKELQKELEKKLKELEELVKKYGDEADKKDVEIAKELWKEAQADPENRLEYLKQLRAALRVLAGRYLLELEE
# B24: GBRAP_128_3238 (protein)
# chain: PDPAVEAEADALIETIVTGTPEEAAAATAALVALMATVDLETAERFAERLKAALEKLTAEKLDVVADALRANRGRLDPEKATLAADVEIEALNLAEEKEE
# B25: GBRAP_35_5548 (protein)
# chain: DSDEETAEMLVDTIEDIVEALPDVSEEDRVALAEAALRLARDLVELQPKNKELIKRAIEALERIKEIIEESDLPEEVRERLVREIEELIEELKKILEENE
# B26: GBRAP_52_5920 (protein)
# chain: SSEKAKKIAEEILEAALAGKEEELKKLIEELVKNYSLEEIKEVIRELARIIAELGPEHYDLFAEIMDLLLDAAEKAGRDVEEVDAAIAEAAGLLYQAEQA
# B27: GBRAP_83_6981 (protein)
# chain: AEHIVVAGNSDNIEEAAEIAIDLHEEEGYEVDIELIIKKEDKEKLLKELKKVFEKGVETDILILGEGMTEEEAEELEKELKEIAKEYGVNVNIEVELLPP
# B28: GBRAP_83_6950 (protein)
# chain: KEKLVVAANGDHVEEAVKIAADLAKTGKYEVTLEVITDVESAKVLIEEVGKALKAGVKFELEVLLEGATEEEAEEVLKEFKKVAKEAGADIPVEVHVLEP
# B29: GBRAP_57_6449 (protein)
# chain: EERLKKIREAAKKTIELLKSKAPDEEIRKAISEFMDLLSDEVVDLVAAYLDPEAAEGLDREELKKLAVEKLLEVAKTKGPEEAIKIIETALAQEELLAEE
# Molecular target: GABARAP, O95166
# Assay: median log2 fold change of GCK-ALFA target abundance (FLAG IP / Myc IP barcode read proportion) (log2 ratio); each designed protein is fused to an ALFA-tag nanobody in HEK293 cells to bring the named protein to FLAG-tagged glucokinase (GCK); Myc marks an untargeted standard; higher = target protein stabilised (more abundant)
# Conditions: target protein: 3xFLAG-MCP-GCK-ALFA reporter; HEK293 landing pad (RPLP)
# How it was run: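 The readout is target abundance, the per-binder median log2 ratio of FLAG to Myc barcode read proportions. It came from HEK293 landing-pad cells carrying a recombined ALFA-nanobody-fused binder library, induced with 2 μg mL^−1 doxycycline and transfected with a plasmid for a FLAG-tagged target and a Myc-tagged standard. After 48 h, lysates were immunoprecipitated with anti-FLAG and anti-Myc, and circular RNA barcodes were reverse transcribed, amplified and sequenced. Each barcode needed a proportion of at least 10^−7 in both replicates and each binder at least 3 barcodes per replicate, a pseudocount of 10^−6 was added, and the replicates were pooled.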
# Sequence of GABARAP, O95166 (O95166 whole entry, the tested form may be a part): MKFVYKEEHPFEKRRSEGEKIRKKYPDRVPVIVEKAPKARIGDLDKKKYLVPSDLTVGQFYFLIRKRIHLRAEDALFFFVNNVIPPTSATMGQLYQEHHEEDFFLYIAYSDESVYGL
row,Binder,median log2 fold change
1,B1,0.0559
2,B2,0.105
3,B3,0.127
4,B4,0.0579
5,B5,0.288
6,B6,-0.136
7,B7,0.325
8,B8,0.0765
9,B9,0.0106
10,B10,-0.0905
11,B11,-0.0725
12,B12,0.165
13,B13,-0.00309
14,B14,-0.128
15,B15,0.0648
16,B16,-0.14
17,B17,0.296
18,B18,0.157
19,B19,0.157
20,B20,0.146
21,B21,0.253
22,B22,-0.197
23,B23,0.396
24,B24,0.255
25,B25,-0.485
26,B26,0.0721
27,B27,0.0819
28,B28,-0.0309
29,B29,0.302
